From article PMC4336329 (PLoS ONE, 2015) come the findings set out here.

In all, about 310,000 compounds went through this assay and about 2,200 (0.71%) showed an effect of 50% or more. Effects have a minus sign here. The list shows a part of the results.

Sequence of human ether-à-go-go-related gene (hERG) potassium channel (Q12809 whole entry, looked up): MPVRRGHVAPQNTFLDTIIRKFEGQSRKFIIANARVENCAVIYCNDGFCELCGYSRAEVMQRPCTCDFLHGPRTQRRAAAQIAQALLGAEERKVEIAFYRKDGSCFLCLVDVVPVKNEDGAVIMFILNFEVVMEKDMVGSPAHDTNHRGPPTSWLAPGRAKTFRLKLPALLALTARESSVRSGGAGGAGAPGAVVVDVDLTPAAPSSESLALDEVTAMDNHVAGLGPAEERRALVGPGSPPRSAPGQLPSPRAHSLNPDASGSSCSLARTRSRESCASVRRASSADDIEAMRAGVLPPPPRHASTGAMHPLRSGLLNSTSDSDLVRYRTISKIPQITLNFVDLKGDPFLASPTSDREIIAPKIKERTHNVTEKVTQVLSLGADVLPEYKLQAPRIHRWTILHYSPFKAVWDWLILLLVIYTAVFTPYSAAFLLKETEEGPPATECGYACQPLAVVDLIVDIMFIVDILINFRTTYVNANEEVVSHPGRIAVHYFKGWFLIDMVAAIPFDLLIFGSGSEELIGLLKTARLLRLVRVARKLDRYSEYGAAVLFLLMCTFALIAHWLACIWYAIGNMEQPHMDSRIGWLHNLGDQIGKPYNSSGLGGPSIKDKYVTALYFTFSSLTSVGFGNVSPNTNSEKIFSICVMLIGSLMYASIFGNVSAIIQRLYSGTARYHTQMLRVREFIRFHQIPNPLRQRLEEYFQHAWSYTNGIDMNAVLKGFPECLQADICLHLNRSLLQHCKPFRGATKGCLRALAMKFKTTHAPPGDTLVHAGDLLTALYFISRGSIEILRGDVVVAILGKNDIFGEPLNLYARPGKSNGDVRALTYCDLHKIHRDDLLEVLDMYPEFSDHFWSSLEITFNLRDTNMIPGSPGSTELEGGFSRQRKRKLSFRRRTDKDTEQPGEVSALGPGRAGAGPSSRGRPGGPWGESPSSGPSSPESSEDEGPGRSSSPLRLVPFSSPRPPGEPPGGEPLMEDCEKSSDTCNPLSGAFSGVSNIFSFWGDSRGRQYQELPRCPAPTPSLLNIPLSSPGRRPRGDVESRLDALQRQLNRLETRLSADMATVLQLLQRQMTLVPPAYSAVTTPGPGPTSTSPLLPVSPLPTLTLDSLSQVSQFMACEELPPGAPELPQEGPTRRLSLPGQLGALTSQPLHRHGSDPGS

This test addresses human ether-à-go-go-related gene (hERG) potassium channel (human, UniProt Q12809). Briefly: primary screen, population patch clamp on CHO cells stably expressing hERG.
Turning to `O=C(Nc1ccc(S(=O)(=O)Nc2ncccn2)cc1)C(F)(F)F`, the “hERG current change (%, negative = inhibition) at 1uM” value stood at 19.6%.
Consider `c1ccc(Cc2nnc3sc(C4COc5ccccc5O4)nn23)cc1` (centres unmarked), for which the “hERG current change (%, negative = inhibition) at 1uM” value is -0.465%.
As to `O=C(O)CN(c1ccccc1[N+](=O)[O-])S(=O)(=O)c1ccccc1`, the “hERG current change (%, negative = inhibition) at 1uM” value turned out to be 21.1%.
The figure for `CCOCCCn1c(SCC(=O)Nc2ccc(NC(C)=O)cc2)nc2ccccc2c1=O` is 8.34%; for `O=C(CC1N=C2c3ccccc3N=C(SCc3ccc(Cl)cc3)N2C1=O)NCc1ccco1` (centres unmarked) it is -27.4%; for `CC(=O)c1ccccc1N(C(=O)Cn1nnc2ccccc21)C(C(=O)NCC1CCCO1)c1ccc(N2CCOCC2)cc1` (centres unmarked) it is -5.24%.
The figure for `O=C(COc1ccccc1)NCC(c1ccco1)N1CCN(c2ccccc2)CC1` (centres unmarked) is 0.0406%; for `Cc1onc(-c2ccccc2)c1C(=O)OCC(=O)Nc1ccc(Cl)cc1` it is 2.94%; for `O=C(NCc1ccco1)c1cc(Cl)nc(Cl)c1` it is 8.63%.
In the case of `O=C(CSC1=NCCS1)Nc1nc(-c2ccccc2)cs1` it was 4.18%.
Regarding `O=C(Nc1c(-c2ccccc2)nc2ccccn12)c1cccs1`, the “hERG current change (%, negative = inhibition) at 1uM” value turned out to be 8.69%.
Take `COc1ccc(Cl)cc1S(=O)(=O)N(C)CC(=O)N1CCCC1`: the “hERG current change (%, negative = inhibition) at 1uM” value is reported as 5.48%.
In the case of `O=C(CN1C(=O)NC2(CCCC2)C1=O)Nc1ccc(F)cc1` it was 10.3%; in that of `CC(=O)Nc1ccc(NCN2C(=O)C3C4CCC(C4)C3C2=O)cc1` (centres unmarked), 11.6%; in that of `Cl.NC(Cc1ccc(O)cc1)c1cn([C@@H](CCC(=O)O)C(=O)N2CCNCC2)nn1` (some centres unmarked), 11.3%.
The figure for `O=C(c1ccccc1)N1N=C(c2ccccc2)CC1(O)C(F)(F)F` (centres unmarked) is 13.6%; for `O=C(NCCN1CCN(S(=O)(=O)c2ccc([N+](=O)[O-])cc2)CC1)C(=O)Nc1ccccc1` it is 2.87%; for `COc1ccc(Cl)cc1NC(=S)NCCc1c[nH]c2ccccc12` it is -4.09%.
In the case of `O=C(c1cc2nc(-c3ccc(Cl)cc3)cc(C(F)(F)F)n2n1)N1CCOCC1` it was 19.1%.
On to `CCC(C)(C)C1CCC2(CC1)NC(=O)N(CC(=O)NCCCc1ccccc1)C2=O` (centres unmarked), for which the “hERG current change (%, negative = inhibition) at 1uM” value is recorded as 6.94%.
In the case of `COC(=O)c1ccc(COC(=O)CNC(=O)c2cccs2)cc1`, the “hERG current change (%, negative = inhibition) at 1uM” value worked out at 14.9%.
As for `Cc1ccc(-n2c(C)cc(-c3csc(N)n3)c2C)cc1.Cl`, the “hERG current change (%, negative = inhibition) at 1uM” value is listed as 9.73%.
The figure for `COc1ccc2oc(=O)c(C(=O)n3ccc(C)n3)cc2c1` is -3.05%; for `CCC(OC(=O)CN1C(=O)c2ccccc2C1=O)C(=O)NC1CCCC1` (centres unmarked) it is 9.4%.
In the case of `O=C(NCc1cccnc1)c1ccc([N+](=O)[O-])o1` it was 8.74%; in that of `COc1ccc(C(=O)N2CCC(n3nccc3NC(=O)C3CCOC3)CC2)cc1` (centres unmarked), 9.41%; in that of `CCOC(=O)C1=C(CN2CCC(C)CC2)NC(=O)NC1c1ccc(Cl)cc1` (centres unmarked), 3.37%.
In the case of `COc1ccc(C(=O)OC/C(O)=C(\C#N)c2nc3ccccc3[nH]2)cc1S(=O)(=O)N1CCOCC1` it was 7.95%; in that of `Cc1ccccc1OCC(=O)OCC(=O)Nc1ccc(Cl)cn1`, 18.9%; in that of `O=C1NC(c2ccccc2)C(C(=O)c2cccs2)C(O)(C(F)(F)F)N1` (centres unmarked), -3.73%.
With `Clc1ccc(-c2csc(N3CCC(c4ccccc4)C3)n2)cc1` (centres unmarked), the “hERG current change (%, negative = inhibition) at 1uM” value is listed as 14.9%.
In the case of `Cc1cc(C)n(-c2ccc(Cl)c(C(=O)NCc3ccccc3)n2)n1` it was 8.57%; in that of `O=C(Nc1cccc(-c2nc3cccnc3s2)c1)c1ccc(Cl)nc1`, 10.4%.
For the compound `Cc1ccccc1OCC(=O)OCC(=O)N1CCCc2ccccc21`, the “hERG current change (%, negative = inhibition) at 1uM” value was determined as 17.3%.
The figure for `Cn1c(=O)c2c(nc3n2CC(O)CN3c2ccc(O)cc2)n(C)c1=O` (centres unmarked) is 18.1%; for `COc1ccc(Cl)cc1N(CC(=O)NC1CC2CCC1C2)S(=O)(=O)c1ccccc1` (centres unmarked) it is -0.203%; for `Cn1c(Cn2c(=O)sc3ccccc32)nnc1SCC(N)=O` it is -9.65%.
The figure for `CC(NS(=O)(=O)c1ccc(CCC(=O)NCc2ccco2)cc1)c1ccccc1` (centres unmarked) is 1.23%; for `CC1CCN(C(=S)c2cccc([N+](=O)[O-])c2)CC1` it is 8.63%; for `Cc1noc(COc2ccc(OCc3nc(C)no3)cc2)n1` it is 11.4%.
Regarding `O=C(OCCN=C1NS(=O)(=O)c2ccccc21)c1ccccc1F`, the “hERG current change (%, negative = inhibition) at 1uM” value was 11.1%.
The figure for `COc1cc(CNC(=O)c2cnc(C)cn2)cc(OC)c1` is 11.9%; for `CCn1c(SCC(=O)N2CCCC2)nc2c(c1=O)SCC2` it is 13%.
In the case of `Cc1nc(C)c(CCNC(=O)c2cccc(Cl)c2)s1` it was 1.58%; in that of `Cl.Oc1ccccc1/C=N/NC1=NCCCCC1`, -6.02%.
The figure for `CC1CCCN(CCCCOc2cccc(Br)c2)C1.O=C(O)C(=O)O` (centres unmarked) is -10.6%; for `CS(=O)(=O)c1ccccc1C(=O)N1CCN(Cc2ccccc2)CC1` it is 15.1%; for `CCOC(=O)CNC(=O)CNC(=O)c1ccc(OCC(C)C)cc1` it is 5.76%.
Take `CCc1ccc(C=NC23CN4CN(CN(C4)C2)C3)s1`: the “hERG current change (%, negative = inhibition) at 1uM” value was 7.69%.
In the case of `O=C(CCCn1c(=O)c2cccn2c2cccnc21)N1CCN(c2ccccc2F)CC1` it was 7.48%; in that of `CC(=O)c1cccc(NC(=O)N2CCC(NC(=O)C34CC5CC(CC(C5)C3)C4)CC2)c1`, 10.1%.
In the case of `CC(=O)Nc1ccc(S(=O)(=O)NC(CC(=O)NC2CCCCC2C)C(C)C)cc1` (centres unmarked) it was 9.89%; in that of `COc1ccccc1N=C1SCCCN1C.I`, -16.4%; in that of `CCOC(=O)C1(Cc2cccc(F)c2)CCN(C(=O)C2CCCO2)CC1` (centres unmarked), 12%.
`CCOc1ccc(-n2c(N)c(C(=O)NCc3ccco3)sc2=S)cc1`: the “hERG current change (%, negative = inhibition) at 1uM” value is -2.01%.
In the case of `COC(=O)[C@@]12CCCN1[C@H](c1ccc(SC3CCCCC3)cc1)[C@H]1C(=O)N(C)C(=O)[C@H]12.O=C(O)C(F)(F)F` it was 13%.
